Test results taken from the supplement of paper PMC11125491.
± gives the standard deviation of the averaged measurements. Growth of baker's yeast expressing single-residue variants of Pneumocystis jirovecii dihydrofolate reductase in 8.8 or 44 µM methotrexate (about 75% and 90% inhibition of the wild type). Selection coefficient per generation; 0 = like wild type, above 0 = less sensitive, below 0 = more sensitive or loss of function. No active / inactive call per row; the paper calls resistant above 0.220 (8.8 µM) or 0.243 (44 µM) together with a significance test. At 44 µM about 15% of codons end with one read or none, so the lowest values are floors (replicate rank correlation 0.74; 0.94 at 8.8 µM).

B1: UniProt A0EPZ9; numbered along this chain (parent)
chain: MDWQKSLTLIVALTLSRGIGLKNDLPWKLKSDMMFFSRVTSGLLVTRSTGQMNVVLMGRKTWESLPAHSRPLKNRINVVISRQEVLDLGGGAYHARSLDDALALLSQIYDSTSKIQLNRVFVIGGGELCKAAMEHSRLNRIIATVIHNEVDCDVFFPIDFRSSQSCLPWRKQDHSVLEAWVGSKVPQGKINENGFIYEFEMWIRDI

Variants of: B1
Experiment: selection coefficient against synonymous wild-type codons (log2 per generation); higher = faster growth than wild type
Settings: with Saccharomyces cerevisiae carrying the variant on a plasmid
Procedure: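 Pooled growth of yeast carrying single-residue variants of P. jirovecii dihydrofolate reductase (own DFR1 gene intact), two passages at 30 °C, three cultures, sequenced before and after. Codons with under 15 starting reads are left out; codons of one change are averaged.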

Row | Variant | selection coefficient against synonymous wild-type codons (log2) (methotrexate 8.8 µM) | selection coefficient against synonymous wild-type codons (log2) (methotrexate 44 µM)
1 | T14G | 0.0105 ± 0.035 | -0.13 ± 0.13
2 | T14M | -0.254 ± 0.086 | -0.191 ± 0.082
3 | T14R | -0.0244 ± 0.075 | 0.158 ± 0.08
4 | T14S | -0.113 ± 0.093 | -0.121 ± 0.11
5 | T14H | 0.29 ± 0.026 | 0.324 ± 0.026
6 | T14W | -0.314 ± 0.26 | -0.0888 ± 0.24
7 | T14V | 0.141 ± 0.042 | 0.201 ± 0.075
8 | T14C | -0.289 ± 0.079 | -0.203 ± 0.18
9 | T14N | 0.0842 ± 0.08 | 0.0875 ± 0.059
10 | T14F | -0.292 ± 0.068 | -0.193 ± 0.2
11 | T14I | -0.052 ± 0.027 | 0.0946 ± 0.035
12 | T14Q | -0.0214 ± 0.056 | -0.0679 ± 0.039
13 | T14A | -0.131 ± 0.11 | -0.167 ± 0.11
14 | T14D | 0.159 ± 0.028 | 0.0421 ± 0.11
15 | V11C | 0.406 ± 0.042 | 0.457 ± 0.034
16 | V11K | 0.216 ± 0.058 | 0.225 ± 0.07
17 | V11M | 0.593 ± 0.022 | 0.7452 ± 0.0072
18 | V11D | 0.127 ± 0.04 | 0.408 ± 0.088
19 | V11Q | 0.736 ± 0.027 | 0.897 ± 0.02
20 | V11F | 0.539 ± 0.022 | 0.669 ± 0.0068
21 | V11S | 0.406 ± 0.075 | 0.46 ± 0.077
22 | V11E | 0.598 ± 0.025 | 0.848 ± 0.015
23 | V11I | 0.0398 ± 0.047 | 0.168 ± 0.12
24 | V11L | 0.266 ± 0.044 | 0.307 ± 0.056

Row | Variant | selection coefficient against synonymous wild-type codons (log2) (methotrexate 8.8 µM) | selection coefficient against synonymous wild-type codons (log2) (methotrexate 44 µM)
25 | V11W | 0.0891 ± 0.048 | 0.221 ± 0.036
26 | V11G | 0.552 ± 0.077 | 0.64 ± 0.09
27 | V11N | 0.166 ± 0.03 | 0.189 ± 0.12
28 | V11H | 0.676 ± 0.026 | 0.824 ± 0.068
29 | V11T | 0.476 ± 0.082 | 0.519 ± 0.12
30 | V11P | 0.0348 ± 0.035 | 0.346 ± 0.04
31 | V11R | -0.357 ± 0.12 | -0.23 ± 0.12
32 | V11A | 0.176 ± 0.056 | 0.215 ± 0.067
33 | V11Y | 0.692 ± 0.055 | 0.831 ± 0.022
34 | L15T | 0.338 ± 0.026 | 0.328 ± 0.029
35 | L15C | 0.0967 ± 0.021 | 0.116 ± 0.057
36 | L15F | 0.134 ± 0.044 | 0.13 ± 0.11
37 | L15M | 0.177 ± 0.016 | 0.141 ± 0.068
38 | L15V | 0.0754 ± 0.024 | 0.0704 ± 0.083
39 | L15P | 0.568 ± 0.12 | 0.623 ± 0.14
40 | L15Q | 0.366 ± 0.013 | 0.357 ± 0.016
41 | L15R | 0.388 ± 0.17 | 0.358 ± 0.21
42 | L15W | 0.237 ± 0.0046 | 0.21 ± 0.058
43 | L15H | 0.41 ± 0.036 | 0.366 ± 0.092
44 | L15E | 0.237 ± 0.027 | 0.244 ± 0.041
45 | L15S | 0.364 ± 0.23 | 0.362 ± 0.24
46 | L15N | 0.279 ± 0.041 | 0.288 ± 0.11
47 | L15D | 0.317 ± 0.066 | 0.337 ± 0.05
48 | L15G | 0.316 ± 0.094 | 0.313 ± 0.086

Row | Variant | selection coefficient against synonymous wild-type codons (log2) (methotrexate 8.8 µM) | selection coefficient against synonymous wild-type codons (log2) (methotrexate 44 µM)
49 | L15Y | 0.164 ± 0.066 | 0.21 ± 0.14
50 | L15I | -0.0567 ± 0.026 | -0.0232 ± 0.041
51 | L15A | 0.388 ± 0.035 | 0.382 ± 0.068
52 | L15K | 0.145 ± 0.039 | 0.144 ± 0.099
53 | R17E | 0.377 ± 0.05 | 0.392 ± 0.018
54 | R17G | 0.109 ± 0.059 | 0.0877 ± 0.089
55 | R17V | -0.143 ± 0.19 | -0.0469 ± 0.077
56 | R17Q | 0.287 ± 0.031 | 0.278 ± 0.058
57 | R17C | -0.168 ± 0.02 | -0.193 ± 0.13
58 | R17K | 0.217 ± 0.031 | 0.174 ± 0.005
59 | R17L | -0.454 ± 0.1 | -0.205 ± 0.13
60 | R17P | -0.0894 ± 0.12 | 0.00123 ± 0.11
61 | R17N | 0.303 ± 0.044 | 0.363 ± 0.019
62 | R17S | 0.164 ± 0.091 | 0.13 ± 0.13
63 | R17H | 0.293 ± 0.038 | 0.247 ± 0.07
64 | R17M | -0.324 ± 0.14 | -0.24 ± 0.084
65 | R17A | 0.0805 ± 0.044 | -0.0441 ± 0.2
66 | R17W | -0.347 ± 0.12 | -0.257 ± 0.14
67 | R17I | -0.165 ± 0.14 | 0.0413 ± 0.14
68 | R17T | 0.123 ± 0.089 | 0.131 ± 0.065
69 | R17F | -0.371 ± 0.027 | -0.123 ± 0.037
70 | R17D | 0.483 ± 0.04 | 0.554 ± 0.052
71 | R17Y | -0.132 ± 0.18 | 0.0499 ± 0.38
72 | I10T | 0.653 ± 0.031 | 0.778 ± 0.033

Row | Variant | selection coefficient against synonymous wild-type codons (log2) (methotrexate 8.8 µM) | selection coefficient against synonymous wild-type codons (log2) (methotrexate 44 µM)
73 | I10W | 0.566 ± 0.021 | 0.805 ± 0.021
74 | I10V | 0.475 ± 0.038 | 0.557 ± 0.056
75 | I10R | -0.184 ± 0.085 | 0.0825 ± 0.12
76 | I10S | 0.313 ± 0.046 | 0.407 ± 0.072
77 | I10Y | 1.11 ± 0.053 | 1.46 ± 0.043
78 | G20E | -0.489 ± 0.037 | -0.321 ± 0.16
79 | G20P | -0.539 ± 0.056 | -0.157 ± 0.095
80 | G20C | -0.396 ± 0.085 | -0.293 ± 0.14
81 | G20K | -0.371 ± 0.08 | -0.343 ± 0.11
82 | G20S | 0.0501 ± 0.13 | 0.0274 ± 0.13
83 | G20R | -0.305 ± 0.14 | -0.184 ± 0.12
84 | G20W | -0.602 ± 0.12 | -0.305 ± 0.12
85 | G20N | -0.321 ± 0.052 | -0.073 ± 0.016
86 | G20M | -0.517 ± 0.12 | -0.294 ± 0.097
87 | G20H | -0.297 ± 0.024 | -0.0491 ± 0.05
88 | G20V | -0.304 ± 0.26 | 0.104 ± 0.31
89 | G20A | 0.0801 ± 0.15 | 0.104 ± 0.088
90 | G20D | -0.24 ± 0.12 | -0.204 ± 0.14
91 | G20Q | -0.425 ± 0.045 | -0.244 ± 0.17
92 | G20F | -0.43 ± 0.027 | -0.115 ± 0.11
93 | G20T | -0.444 ± 0.18 | -0.365 ± 0.039
94 | G20Y | -0.465 ± 0.066 | -0.26 ± 0.021
95 | G20I | -0.38 ± 0.069 | -0.132 ± 0.055
96 | G20L | -0.493 ± 0.14 | -0.209 ± 0.14

Row | Variant | selection coefficient against synonymous wild-type codons (log2) (methotrexate 8.8 µM) | selection coefficient against synonymous wild-type codons (log2) (methotrexate 44 µM)
97 | K22T | 0.234 ± 0.021 | 0.182 ± 0.054
98 | K22P | -0.309 ± 0.069 | -0.227 ± 0.12
99 | K22A | 0.121 ± 0.036 | 0.141 ± 0.15
100 | K22G | 0.0944 ± 0.023 | 0.0251 ± 0.032
101 | K22N | 0.0158 ± 0.073 | 0.0766 ± 0.1
102 | K22L | -0.138 ± 0.053 | -0.129 ± 0.14
103 | K22C | 0.0165 ± 0.016 | -0.00397 ± 0.061
104 | K22F | -0.107 ± 0.053 | 0.0282 ± 0.029
105 | K22W | -0.218 ± 0.014 | -0.115 ± 0.13
106 | K22I | 0.0866 ± 0.022 | 0.0956 ± 0.097
107 | K22E | 0.272 ± 0.022 | 0.244 ± 0.019
108 | K22S | 0.14 ± 0.054 | 0.139 ± 0.092
109 | K22H | 0.0124 ± 0.055 | -0.137 ± 0.053
110 | K22R | -0.0812 ± 0.045 | -0.0357 ± 0.11
111 | K22Y | -0.126 ± 0.068 | -0.0857 ± 0.072
112 | K22D | 0.217 ± 0.052 | 0.2 ± 0.1
113 | K22M | -0.0699 ± 0.084 | -0.123 ± 0.2
114 | K22Q | 0.0332 ± 0.052 | -0.0191 ± 0.059
115 | K22V | 0.237 ± 0.042 | 0.294 ± 0.035
116 | N23A | 0.00316 ± 0.033 | -0.00545 ± 0.024
